Results published in the supplement of paper PMC3724861.
This is one part of the list.

tested on: T1, Caupolican (Caup) homeodomain DNA-binding domain; experiment: PBM E-score (8-mer, recovered from the published 9-mer minima) (E-score (dimensionless, -0.5 to 0.5)); Drosophila protein; higher = stronger relative binding preference, active = 0.31 or more
T1 sequence: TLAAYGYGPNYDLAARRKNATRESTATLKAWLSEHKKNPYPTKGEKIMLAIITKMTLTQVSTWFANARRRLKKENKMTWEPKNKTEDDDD
Method in brief: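 An enrichment score, with higher meaning stronger, expresses relative binding preference for each short DNA word. The protein used was Caup's homeodomain DNA-binding domain (residues 214-303), produced by in vitro transcription and translation and tested at 100 nM on custom-designed protein binding microarrays. The 8-mer values were recovered from published 9-mer scores, each equal to the lower of its two constituent 8-mer scores.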

PBM E-score, inactive:
CCATATCG -0.00323, TAGATTGA 0.0377, CCTTATAG 0.0564, CAATAACC 0.0238, ATGCCGGA -0.132, TAAGGGTA 0.00713, GGCCGGTA -0.076, TCTCCCCA -0.186, TACCCACA 0.0269, GAAACAGA 0.0865, GTGGAACA 0.138, CTGCCGGC -0.235, AGAGGAGA -0.101, CAACGAAC 0.0555, AGAAATTA 0.0774, CAAGCGGG -0.167, AACTACTT 0.164, GGGGTCAC -0.239, CACAGGTA 0.135, CTACCTAC 0.0849, CTGCCGGA -0.102, GCAGGCTA -0.201, ACGTGGGC -0.0878, CACCTTGG -0.0652, AAATTGGT 0.142, GTGTGGCA -0.136, ATCTTCAG 0.0301, ATTTCCGG 0.0326, CTCGATTC -0.0509, GCAAGTAA 0.173, ATCTGTCA 0.151, AACCGAAT 0.0717, CGGGTGGA -0.134, TCGGTTAA 0.0121, ACGCCGAC -0.0675, AAATATCC 0.062, CTGCGAGC -0.145, ACTGAGAC 0.0401, ATGGCTTC -0.0417, ATTACGCC -0.029, ATGCCGAG 0.0061, CCGGCTCA -0.123, GTAAATTA 0.198, CAGGCCGC -0.255, ACCTTCAG -0.0653, ACAGACTA 0.0883, ACCAGAAG 0.0587, TGGTTACA 0.267, ATACCTTC 0.0341, CACACGAA 0.0926, CTTCTTTA -0.00368, AAACCCGC -0.125, CGTATGAA 0.0471, ATGCAATC 0.105, ATTCCAAT 0.0698, AAGGCGCG -0.205, AGAATGGG -0.0878, AAACGGTC -0.068, CCTATGGC -0.138, AACGAAGA -0.00414, CTCCTTGC -0.108, GGCCGAAA -0.0199, AAAACGTG 0.0311, AAGATCGG -0.197, GCGGTAAC 0.0415, ACTCAGGA -0.0584, GCCGCGCA -0.289, AATCCCGT 0.11, TCGTAACA 0.295, GATGTAAA 0.305, GGCCGCAC -0.215, AGGATCTA -0.0004, GGAAAAGA 0.0764, ATTACGGA 0.0876, CACTAAAA 0.00931, CGTTAAAC 0.116, CCCTTAGC -0.228, AGGGAAAC -0.098, ATGGAACA 0.263, AGAGGTAA 0.00183, GATCCGAA -0.0353, TATGATCA 0.167, AAAGGTAA 0.0668, TCTTTCCA -0.0573, CCAGCCCG -0.241, CCTACAGG -0.0711, ATATTTGG 0.122, GACTACGC -0.0482, ACTATCCG 0.0872, CTCCGGAA -0.126, AATTCAAC 0.0988, CGATGGAC 0.00441, CACCGGCC -0.176, GGGCAGAC -0.216, CTCACTGA -0.0918, CAAAAGAG -0.0329, AATCGGCA -0.0218, ACTTTCGA -0.0323, GCGTACGC -0.112, AAAAGTTA 0.0938, GGCAGTGA -0.149, CGAACGGC -0.138, ATTGAATA 0.166, ATTAGACG -0.0112, GAGCAACC -0.0086, GGCTGTGA -0.0365, AACGAGGC -0.0558, AAAGTTGT 0.17, AGTAGGGG -0.0773

PBM E-score, active:
ATAACAAG ≥ 0.373

PBM E-score, ≥ 0.0181:
ACCCTTCA
